Results taken from the supplement of paper PMC4604168 (melanoma cell lines).
The other results are listed elsewhere or left out. Many values rest on one well or one pass, so single values are uncertain.

What was measured:
Assay in all cases: cell count relative to DMSO control; melanoma cells; higher = more viable cells
Settings in all cases: library dose: low library concentration; 72 h
MZ2-MEL = system: MZ2-MEL
MeWo = system: MeWo
RPMI7951 = system: RPMI7951
RVH-421 = system: RVH-421
SkMel28 = system: SkMel28
SkMel30 = system: SkMel30
SkMel5 = system: SkMel5
UACC257 = system: UACC257
UACC62 = system: UACC62
WM115 = system: WM115
WM1716 = system: WM1716
WM1745 = system: WM1745
WM3526 = system: WM3526
WM3619 = system: WM3619
WM451Lu = system: WM451Lu
SkMel2 = system: SkMel2
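Further: cell number obtained by counting DAPI-stained nuclei in high-throughput microscope images with image analysis software, screen run in 1,536-well plates.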

| Compound | cell count (MZ2-MEL) [%] | cell count (MeWo) [%] | cell count (RPMI7951) [%] | cell count (RVH-421) [%] | cell count (SkMel28) [%] | cell count (SkMel30) [%] | cell count (SkMel5) [%] | cell count (UACC257) [%] | cell count (UACC62) [%] | cell count (WM115) [%] | cell count (WM1716) [%] | cell count (WM1745) [%] | cell count (WM3526) [%] | cell count (WM3619) [%] | cell count (WM451Lu) [%] | cell count (SkMel2) [%] |
| --- | --- | --- | --- | --- | --- | --- | --- | --- | --- | --- | --- | --- | --- | --- | --- | --- |
| O=C(O)C(=O)Nc1sc2c(c1C(=O)O)CCNC2 + O=C(Oc1ccc([N+](=O)[O-])cc1)N1CCC(C(O)(c2ccc3c(c2)OCO3)c2ccc3c(c2)OCO3)CC1 [JZL184] (first compound 1.66667 µM, partner dose 1 µM) | 103 | 112 | 93.9 | 97.4 | 109 | 98.1 | 81.1 | 89 | 100 | 89.8 | 107 | 74.1 | 93.4 | 116 | 95.7 | – |
| CO[C@H]1C[C@@H]2CC[C@@H](C)[C@@](O)(O2)C(=O)C(=O)N2CCCC[C@H]2C(=O)O[C@H]([C@H](C)C[C@@H]2CC[C@@H](OCCO)[C@H](OC)C2)CC(=O)[C@H](C)/C=C(\C)[C@@H](O)[C@@H](OC)C(=O)[C@H](C)C[C@H](C)/C=C/C=C/C=C/1C [everolimus] + C/C(O)=C(\C#N)C(=O)Nc1cc(Br)ccc1Br [LFM-A13] (first compound 0.02 µM, partner dose 2 µM) | 78 | 67.6 | 88.3 | 84.2 | 52.4 | 64 | 115 | 65.7 | 92.7 | 80.2 | 73.4 | 81.6 | 70.6 | 73 | 82 | – |
| Cn1c(Nc2ccc(C(F)(F)F)cc2)nc2cc(Oc3ccnc(-c4ncc(C(F)(F)F)[nH]4)c3)ccc21 + C/C(O)=C(\C#N)C(=O)Nc1cc(Br)ccc1Br [LFM-A13] (first compound 0.08 µM, partner dose 2 µM) | 70.1 | 71.4 | 60.1 | 66 | 43.2 | 59.2 | 75.6 | 33.6 | 38.7 | 58.6 | 68.4 | 60 | 59.5 | 52.8 | 101 | – |
| C#Cc1cccc(Nc2ncnc3cc(OCCOC)c(OCCOC)cc23)c1 [erlotinib] + O=C(Oc1ccc([N+](=O)[O-])cc1)N1CCC(C(O)(c2ccc3c(c2)OCO3)c2ccc3c(c2)OCO3)CC1 [JZL184] (first compound 0.8 µM, partner dose 1 µM) | 93.7 | 98.7 | 96.6 | 95.7 | 89.1 | 76.5 | 98.9 | 69.6 | 77 | 99.2 | 102 | 84.2 | 86.5 | 88 | 103 | – |
| O=C(O)c1ccc2c(c1)nc(Nc1cccc(Cl)c1)c1ccncc12 + C/C(O)=C(\C#N)C(=O)Nc1cc(Br)ccc1Br [LFM-A13] (first compound 0.4 µM, partner dose 2 µM) | – | 95.6 | 93.4 | 105 | 88.9 | 86.5 | 89.5 | 74.3 | 84 | 99.3 | 86 | 87.1 | 71 | 97.6 | 81.3 | – |
| COc1cc2ncnc(Nc3ccc(Oc4ccccc4)cc3)c2cc1OC + C/C(O)=C(\C#N)C(=O)Nc1cc(Br)ccc1Br [LFM-A13] (first compound 2 µM, partner dose 2 µM) | 91.5 | 97 | 97.2 | 123 | 87.9 | 118 | 94.1 | 98.5 | 103 | 113 | 105 | 89.3 | 114 | 90.6 | 124 | – |
| COc1ccc(COc2ccc(Cc3cnc(N)nc3N)cc2OC)cc1 + C/C(O)=C(\C#N)C(=O)Nc1cc(Br)ccc1Br [LFM-A13] (first compound 1 µM, partner dose 2 µM) | 106 | 102 | 100 | 104 | 86.3 | 92.8 | 98.7 | 94.6 | 111 | 101 | 88 | 87.8 | 85.6 | 112 | 80.4 | – |
| Clc1ccc(Nc2nnc(Cc3ccncc3)c3ccccc23)cc1 [vatalanib] + Cc1cc(SCc2sc(-c3ccc(C(F)(F)F)c(F)c3)nc2C)ccc1OCC(=O)O [GW0742] (first compound 2 µM, partner dose 2 µM) | – | 93.8 | 106 | 110 | 98.5 | 96.2 | 102 | 84.1 | 93.6 | 112 | 117 | 83.3 | 90.8 | 99.3 | 108 | 106 |
